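Growth conditions: 96-well plates. Treatment: test compound, 48 hours, 5 concentrations. Analysis: linear interpolation between bracketing concentrations; unreached endpoints set to highest concentration. The concentration for 50% growth inhibition is given as GI50. TGI: concentration producing complete growth inhibition.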 Numbered stars: 1 amine (or outer) side, 2 acyl side, 3 side chain; on linkers, the order of the positions; unused ones are H or OH. Bridge positions count the residues as written; N and C are the ends. Square brackets hold non-standard residues; d marks the D form. Peptide text beside a SMILES is read from it. * marks the point of attachment. X31 = O=C(C(CCCCNO[*:3])N[*:1])[*:2]; Fmoc = O=C(OCC1c2ccccc2-c2ccccc21)*; dTle = CC(C)(C)[C@@H](N)C(=O)O; 4Abz = Nc1ccc(C(=O)O)cc1; NHOH = ON*

This experiment relates to NCI-H322M lung. In words: NCI anticancer screen, dose series, 48 h.
Turning to `O=C(/C=C/C12c3ccccc3C(c3ccccc31)C1C(=O)NC(=O)C12)c1ccc(F)cc1` (configuration not stated), the GI50 is 1.52 µM and the TGI was determined as 2.9 µM.

Compound `CCCCCCCCCCCCCCCCCCOCC(CCP(=O)(CP(=O)(O)O)Oc1ccccc1)OCCCCCCCCCCCCCCCCCC` (configuration not stated) yielded a TGI of more than 100 µM. On to `CSC1=NNC(SC)=NN1`, for which the TGI stood at 0.322 µM. With `N#Cc1cc(S(=O)(=O)Nc2nnc(-c3ccccc3)c(-c3ccccc3)n2)c(SCc2ccccc2)cc1Cl`, the GI50 is 20.2 µM and the TGI turned out to be 39 µM. Take `CC(=O)[CH-]C(=O)c1ccccc1.CC(=O)[CH-]C(=O)c1ccccc1.Cc1cc([O-])ccc1Cl.Cc1cc([O-])ccc1Cl.[Ti+4]`: the GI50 was 17.4 µM and the TGI turned out to be 79.1 µM. Turning to `O=C1C=CC(=O)N1c1cccc(N2C(=O)C=CC2=O)c1`, the GI50 is 22.9 µM and the TGI turned out to be 43.3 µM. `O=C1C2CCN(CC2)C1(CO)CO`: the TGI is more than 94.5 µM. In turn, `CCNC12CCC(C1)C(C)(C)C2=O` (configuration not stated) showed a TGI of more than 100 µM. Consider `CCN(CC)C(=S)SCN1C(=O)c2ccccc2S1(=O)=O`, for which the GI50 was more than 76.8 µM and the TGI is more than 100 µM. Regarding `C[C@@H](NC(=O)[C@H](NC(=O)[C@@H]1CCCN1C(=O)CNC(=O)c1ccc(N)cc1)C(C)(C)C)C(=O)NO` (H-[4Abz]GP[dTle][dA]-{NHOH}), the GI50 is more than 100 µM and the TGI is more than 100 µM. With `CO/N=C(\COc1ccc2oc(-c3ccccc3)cc(=O)c2c1)c1ccc(OC)cc1`, the GI50 was 34.7 µM and the TGI is more than 100 µM. Turning to `CC1(c2ccc(Cl)s2)CC(c2ccc(Cl)s2)=C(C#N)C(=C(C#N)C#N)N1` (configuration not stated), the TGI was determined as 29.4 µM.

With `COC1(OC)C=CC2C1C1C=CC2C1(OC)OC` (configuration not stated), the TGI was more than 100 µM. Turning to `Cc1ccc(C(=O)/C(=C\c2ccc([N+](=O)[O-])cc2)S(=O)Cc2ccc(Cl)cc2)cc1` (configuration not stated), the GI50 is 2.26 µM and the TGI was 6.53 µM. `CN(Cc1cc(Br)cc(Br)c1O)Cc1c(O)ccc2ccccc12` yielded a TGI of 33.4 µM. `CCS(=O)(=O)CCn1c(=O)c2c(ncn2C)n(C)c1=O` gave a TGI of more than 100 µM.

In turn, `Cc1cccc(C(C)(C)C)c1NC(=O)CCc1nc(=S)[nH][nH]1` yielded a TGI of more than 100 µM.

With `COc1cccc(Nc2nc(N)nc(N)c2N)c1`, the TGI is more than 100 µM.

Turning to `C/C=C(\CCOS(=O)(=O)c1ccc(C)cc1)[Si](C)(C)C`, the TGI was more than 100 µM.

On to `NS(=O)(=O)NCCNc1nonc1C(=Nc1ccc(F)c(Br)c1)NO`, for which the GI50 was 37.4 µM and the TGI was more than 100 µM.

Compound `O=C1/C(=C/c2ccc(Oc3ccccc3)cc2)N=C(c2ccccc2)N1c1ccc(S(=O)(=O)Nc2nccs2)cc1` had a TGI of more than 100 µM.

Take `O=c1cc(N=Nc2ccc(Cl)c(Cl)c2)[nH]c(=O)[nH]1`: the TGI is 24.6 µM.

`CN(C)c1snc2c1c(=O)n(C)c(=O)n2C` gave a TGI of more than 100 µM.

As for `O=c1c(-c2ccccc2F)coc2cc(F)ccc12`, the TGI was more than 100 µM.

For the compound `Clc1ccc(OCc2nnc3sc(-c4ccc(-c5ccc(Cl)cc5Cl)o4)nn23)cc1`, the TGI was more than 100 µM. Compound `CSc1snc2sc3c(Cl)nnnc3c12` had a TGI of 30 µM. On the same count and under the same terms, for `CCOC(=O)c1cnc2sc3ccc4ccccc4c3n2c1=O` the value was more than 100 µM; for `N=CN=CC(=S)O[C@@H]1C(=O)N2CCC[C@@]23CCCC[C@@H]13`, more than 12.5 µM. For the compound `Cc1cccc2c1CCC21OC(=O)c2c1ccc1ccccc21` (configuration not stated), the TGI was more than 100 µM. The compound `O=C(O/N=C1/CCC/C1=C\c1ccccc1)c1ccc(Cl)c(Cl)c1` yielded a TGI of more than 100 µM.

Consider `CCOC(=O)C(CC/C=C\c1ccccc1)N1CCC[C@H]1C(=O)OC` (some centres not stated), for which the TGI is more than 100 µM. `COC(=O)[C@H]1COC(=O)N1` returned a TGI of more than 100 µM. Regarding `COC(=O)C(COC(=O)/C=C/c1ccc(OC(C)=O)c(OC(C)=O)c1)NC(=O)/C=C/c1ccc(OC(C)=O)c(OC(C)=O)c1` (configuration not stated), the TGI turned out to be 71 µM. For the compound `COc1cc(C2=N/C(=C/c3cccs3)C(=O)O2)cc(OC)c1OC`, the TGI is more than 100 µM. Compound `c1ccc(C(=NCCC2CNc3ccccc32)c2ccccc2)cc1` (configuration not stated) registered a TGI of more than 100 µM. As for `O=C(N/N=C/c1ccc(O)cc1O)c1cccc(Nc2ccnc(C(F)(F)F)c2)c1`, the GI50 is 0.437 µM and the TGI stood at 22.3 µM.

`CN(C)c1ccc(/C=C2\N=C(N/N=C/c3ccccc3O)NC2=O)cc1` returned a TGI of more than 100 µM. Same read-out and setting: the value for `C/C=C1\CN2CCc3c([nH]c4ccccc34)C2C=C1CCO` (configuration not stated) was more than 340 µM; that for `O=S1(=O)OCCOS(=O)(=O)C1Cc1cccc2ccccc12` was 47.4 µM; that for `O=C(NNC(=S)NCc1ccccc1)c1csc(NC(=S)NC2CCCCC2)n1` was more than 100 µM. `CCOC(=O)c1c(C)n(C)c2c1cc(O)c1[nH]c3c(c12)CCCC3`: the TGI came out at 60.3 µM.

Consider `O=C1c2c(ccc3c2CCC3)CC12Cc1ccccc1C2`, for which the TGI came to 40.9 µM. `CCCCCCCCCCCCCCCCCCNc1nc(=O)n(C2CC(O)C(COP(=O)(O)OCC3OC(n4ccc(N)nc4=O)C(O)C3O)O2)cc1F` (configuration not stated) registered a TGI of more than 100 µM.

In the case of `CCc1ccc(C(=Nc2ccc(N(C)C(=O)CN3CCN(C)CC3)cc2)c2c(O)[nH]c3ccc(C(=O)OC)cc23)cc1`, the GI50 is 0.66 µM and the TGI worked out at 2.03 µM. Take `Oc1ccc(C2c3ccccc3Oc3ccccc32)c2cccnc12`: the GI50 is 1.87 µM and the TGI was more than 100 µM. As for `CC([C@H]1CCC2C3CCC4C[C@@H](N)CC[C@]4(C)C3CC[C@@]21C)N(C)C` (some centres not stated), the GI50 was 3.94 µM and the TGI is 19.1 µM. Consider `CC1=NN(c2nc(N)nc(C/C(N)=N/O)n2)C(C)(C)C1`, for which the TGI was more than 100 µM. As for `COc1cc(-c2csc(NC(=O)Nc3ccc(C(F)(F)F)cc3)n2)cc(OC)c1OC`, the GI50 is 2.1 µM and the TGI was determined as 8.46 µM.

`NC(=O)CNC(=O)C1CCCN1C(=O)C1CCCCNOC(=O)CCC(NC(=O)OCC2c3ccccc3-c3ccccc32)C(=O)NC(Cc2c[nH]c3ccccc23)C(=O)N1` (configuration not stated) (Fmoc-EW[X31]PG-NH2; ester 1-3; configuration not given here) registered a TGI of more than 100 µM. `O=c1[nH]c(=O)n(C2CC(O)C(CO)O2)c2nc3ccc4cc5ccccc5cc4c3nc12` (configuration not stated) showed a TGI of more than 100 µM. `O=C(N/N=C1\C(=O)N(c2nccs2)C(=O)C(=O)C1c1nc2ccccc2s1)c1ccccc1O` (configuration not stated) had a TGI of more than 100 µM. For `O=C(NO)[C@@H](Cc1ccccc1)NS(=O)(=O)c1ccc(-c2ccccc2)cc1`, the GI50 was 11.4 µM and the TGI was more than 25 µM. Compound `O=C(O)CCC(N=NNc1ccc(-c2nc3ccccc3[nH]2)cc1)C(=O)O` (configuration not stated) had a TGI of more than 100 µM. On the same count and under the same terms, the value for `COc1ccc2c3c(c(C(=O)c4ccccc4)oc13)CCC2` was more than 100 µM; that for `CC(C)(C)c1ccc(OCCOCCOc2ccc(C(C)(C)C)cc2S(=O)(=O)Nc2ccc([N+](=O)[O-])cc2)c(S(=O)(=O)Nc2ccc([N+](=O)[O-])cc2)c1` was more than 100 µM; that for `COc1ccc(/C(=C/n2ccnc2)C(O)c2ccc(OC)c(OC)c2)cc1OC` (configuration not stated) was more than 100 µM. For the compound `C[C@]12CC[C@@H]3c4ccc(O)cc4CC[C@H]3[C@@H]1CC[C@@H]2OC(=O)CCc1ccccc1`, the TGI was 45.5 µM.

These data come from PubChem BioAssay (NCI).
